The data set relates to ATP. Briefly: switch fluorescence ratio, 500 uM ATP over buffer (Cy3 cluster intensity, sum of 5 cycles each) (fold (ratio)); higher = stronger signal-on switching upon ATP binding; sequences stand for … in TCGTCGGCAGCGTCAGATGTGTATAAGAGACAGTTTTTTTTTTTTTTTTTTTTTTTTT…TC. The settings on record: aptamer strand: ATP DNA aptamer (quencher-CACCTGGGGGAGTATTGCGGAGGAAGG + anchor), 100 nM annealed; ATP concentration: 500 uM; one replicate. The method, boiled down: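 Switching-strand clusters labelled with Cy3 on a modified Illumina MiSeq flow-cell were annealed to 100 nM quencher-labelled ATP aptamer, imaged in selection buffer, and re-imaged after 15 min with 500 uM ATP at 22 °C. This was done over five cycles with NaOH stripping and re-annealing in between. The fluorescence ratio is summed target-cycle over summed buffer-cycle Cy3 intensity per cluster, averaged per switch-domain sequence, excluding clusters outside 100-1000 RFU.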

Values marked as one replicate rest on one cluster of the flow cell; about a third of the high ones do not repeat.
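Also: ATP exposure 15 min at 22 °C before imaging.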

As for TGGGGCGGAT, the switch fluorescence ratio turned out to be 1.08.

With TCTTCACTGA, the switch fluorescence ratio is 1.03. The same measure for CCCAGAGCAG: 2.64. Turning to CCATTAAGTA, the switch fluorescence ratio is 1.06.

With AGGGGTCATT, the switch fluorescence ratio came to 1.

As for TCATGCAAAC, the switch fluorescence ratio is 2.93.

As for GAGCAAGTGT, the switch fluorescence ratio was 1.03.

ATTGTCAGGT: the switch fluorescence ratio was determined as 1. Take ACATAGTATG: the switch fluorescence ratio turned out to be 1. Regarding TGACGTTGCT, the switch fluorescence ratio turned out to be 0.964. For the sequence CGATCTTTGG, the switch fluorescence ratio was determined as 1.04.

With CAATTTTCGC, the switch fluorescence ratio is 1.06. To AAGCCTTGAA belongs 1.02. As for TACACCTCAC, the switch fluorescence ratio is 1.31.

Take TAAGTGAATA: the switch fluorescence ratio is 0.995. On to CAAGCTGGAG, for which the switch fluorescence ratio is 0.975. To GCATACAGAG belongs 1.04; to GGAGCAACC, 3.75; to GGTAGAAGAT, 0.974. In the case of ATCTGTAATG, the switch fluorescence ratio worked out at 1.01. Consider CACATGTGTT, for which the switch fluorescence ratio was determined as 1.01. As to ACGTGAGGGC, the switch fluorescence ratio was 1.03. To GGTGTCGG belongs 0.996; to GTGCTAAGTA, 0.981. ACCGGTTTGG: the switch fluorescence ratio stood at 0.975. On to TTCACGAGTA, for which the switch fluorescence ratio came out at 1.03. Turning to TTAGCTGGTT, the switch fluorescence ratio amounted to 1.02.

Consider CGACCAATG, for which the switch fluorescence ratio was 1.08. With TTTCAGTCT, the switch fluorescence ratio was 1.06. For GAGCCGGTTA, the switch fluorescence ratio turned out to be 0.968. CGAAATCTTA: the switch fluorescence ratio is 0.992.

For the sequence ATGATCGTGT, the switch fluorescence ratio was 1.08. As to GGTTAGGCAG, the switch fluorescence ratio came out at 0.991. As for GGGCTTAACT, the switch fluorescence ratio stood at 1.05.

For CCAACAGGGC, the switch fluorescence ratio came out at 1.5.

Take TTATTATTAA: the switch fluorescence ratio was 0.962. As to ACAATCGAT, the switch fluorescence ratio worked out at 0.948. In the case of GATTGGCTGG, the switch fluorescence ratio turned out to be 0.99. Turning to TGTCAGGCTA, the switch fluorescence ratio amounted to 0.966.

As to TATTCGGGTT, the switch fluorescence ratio turned out to be 0.921.

With TCTGATGTT, the switch fluorescence ratio stood at 1.02.

Consider CCATATTGTT, for which the switch fluorescence ratio was determined as 1.04. To CTCTCCCTAA belongs 1.28; to AAGGCTCCTG, 1.02. The same measure for TACTAGCCG: 1.1. Turning to GATGCAAATT, the switch fluorescence ratio was 1.04. Consider TTTGGTATAT, for which the switch fluorescence ratio came to 0.945. GGCGATAACG: the switch fluorescence ratio was 1.03. Take TAGGGTAGGC: the switch fluorescence ratio amounted to 0.985. In the case of TGTTTGTCGG, the switch fluorescence ratio was determined as 0.982.

Turning to CAAGCACCGC, the switch fluorescence ratio was 0.993. Take TCTTACTAGT: the switch fluorescence ratio was 0.993. The same measure for CTGTTGACGT: 0.975. Take TTTAGTACAT: the switch fluorescence ratio was 0.981. With CGGGAAGGCA, the switch fluorescence ratio worked out at 0.965.

On to CGGGTGGACT, for which the switch fluorescence ratio came to 1. Regarding GATCGCAAAG, the switch fluorescence ratio is 2.54. In the case of AGTTATGATG, the switch fluorescence ratio was 0.957. With TGGTTTATGA, the switch fluorescence ratio turned out to be 0.992. For AGCTTGAGCT, the switch fluorescence ratio came to 1.02. The same measure for TCTATCGGGT: 0.964; for CGCGGCCATG: 0.999; for ACGTCCCCCA: 1.75.

Take ACTCAGCCAT: the switch fluorescence ratio was found to be 2.27.

Turning to GTGCTAGATA, the switch fluorescence ratio was determined as 0.993.

On to CAAGCTGAAC, for which the switch fluorescence ratio was determined as 1.29. In the case of TTCGGAAGTA, the switch fluorescence ratio came out at 0.977.

The values are drawn from the supplement of paper PMC10126150.
